Assay results as given in PubChem BioAssay AID602310 (National Center for Advancing Translational Sciences (NCATS), 2012).
About 310 (0.076%) of roughly 410,000 compounds were called active. This list was built around the results that the source calls inconclusive (neither active nor inactive); the mix of calls is not that of the screen. Calls follow the shape of the dose curve; as a rule, active = well fitted curve in the direction sought with a large enough effect; inconclusive = small, poorly fitted or top-dose-only effect; inactive = flat fitted curve, though single readings scatter. Where the call is inconclusive, the potency comes from a doubtful curve fit.
% is scaled to controls: 0 for no effect and ±100 for the full control effect; potency is read from the fitted curve at half-maximal effect; tags tell the direction and shape of the fitted curve.
Also: nearly all actives have a fitted effect of over 60% in size.
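For activity, negative = active in this document: hits raise eYFP signal because A3G escapes Vif-driven loss.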

Each compound was assayed against DNA dC->dU-editing enzyme APOBEC-3G (Homo sapiens) (UniProt Q9HC16) (assay: qHTS for Inhibitors of Vif-A3G Interactions: qHTS). Conditions: HeLa A3G-eYFP + Vif (tagged APOBEC3G with the HIV-1 protein that degrades it), YFP fluorescence, overnight; series mostly up to 46.1 µM; activity, negative = active: at the top concentration.
Chain of UniProt Q9HC16 (Q9HC16 whole entry, looked up): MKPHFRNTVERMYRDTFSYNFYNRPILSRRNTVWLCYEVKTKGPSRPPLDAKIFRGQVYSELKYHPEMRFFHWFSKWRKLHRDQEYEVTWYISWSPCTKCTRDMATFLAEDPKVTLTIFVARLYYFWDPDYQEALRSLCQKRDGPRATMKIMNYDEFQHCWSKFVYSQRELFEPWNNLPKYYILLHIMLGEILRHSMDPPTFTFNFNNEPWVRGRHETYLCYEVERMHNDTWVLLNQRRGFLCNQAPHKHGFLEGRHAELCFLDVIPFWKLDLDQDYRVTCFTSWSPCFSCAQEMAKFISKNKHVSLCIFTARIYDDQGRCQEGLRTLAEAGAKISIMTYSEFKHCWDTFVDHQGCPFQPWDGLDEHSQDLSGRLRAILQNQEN
Outline: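 HeLa cells stably expressing Vif and C-terminally eYFP-tagged A3G, seeded overnight at 37 deg C, then exposed to compound by pintool overnight at 37 deg C. Rise in yellow fluorescence (Ex 488/Em 500-530, Acumen) marks blocked Vif-driven A3G degradation.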
For `N#C/C(=C\c1ccc(-c2ccc(C(=O)O)cc2)o1)c1nc2ccccc2[nH]1`, the Potency was inconclusive: 2.82 µM [inhibitor, full curve].
`Cc1cc(C)n(-c2ccc(NC(=O)C3CCCCN3C(=O)c3occc3C)cc2)n1` (stereo unspecified) was tested, and the “activity, negative = active” value was inactive: 1.26%.
With `Cc1cc(Br)c(OCC(=O)NN)c2c1CCC2` the Potency was inconclusive: 11.2 µM [inhibitor, partial curve, poor fit].
In the case of `Cc1cc2nc(SCCOC(=O)Nc3cccc(Cl)c3)nc(C)c2cc1C`, the “activity, negative = active” value was inactive: -3.03%.
In the case of `COc1cc(C2c3cc4c(cc3C(O)C3COCC23)OCO4)cc(OC)c1OC` (stereo unspecified), the Potency was inconclusive: 25.1 µM [inhibitor, single point].
With `CC1=C(C)CS(=O)N(S(=O)(=O)c2ccc(Cl)cc2)C1` (stereo unspecified) the Potency was inconclusive: 35.5 µM [inhibitor, single point].
In the case of `COc1cc(C(=O)N/N=C/C2CC=CCC2)cc(OC)c1OC` (stereo unspecified), the Potency was inconclusive: 1.12 µM [inhibitor, full curve, poor fit].
For `COCCCNC(=O)/C=C1\Sc2ccccc2N(Cc2ccccc2F)C1=O`, the “activity, negative = active” value was inactive: -5.56%.
In the case of `N#C/C(=C\c1ccc[nH]1)C(=O)c1ccccc1`, the Potency was inconclusive: 12.6 µM [inhibitor, single point].
`O=S(=O)(c1ccc(Br)cc1)N1CCCc2ccccc21` was tested, and the Potency was inconclusive: 15.8 µM [inhibitor, single point].
For `CCOC(=O)c1ccc(S(=O)(=O)N2CC(=O)Nc3ccccc32)cc1`, the Potency was inconclusive: 35.5 µM [inhibitor, single point].
With `COc1c(-c2ccc(O)c(O)c2)oc2cc(O)cc(O)c2c1=O` the Potency was inconclusive: 12.6 µM [inhibitor, partial curve, poor fit].
With `CN(O)/C=c1/ccc2c(n1)C(=O)C=CC=2` the Potency was inconclusive: 22.4 µM [inhibitor, single point].
With `COc1ccc2nc(N3C(=O)C(O)=C(C(=O)c4ccco4)C3c3ccc(OC)c(OC)c3)sc2c1` (stereo unspecified) the “activity, negative = active” value was inactive: 1.41%.
`O=C(CN1C(=O)CSc2ncccc21)Nc1cccc(Cl)c1` was tested, and the Potency was inconclusive: 15.8 µM [inhibitor, partial curve, poor fit].
With `Cc1c(C(=O)NN)[nH]c2ccc([N+](=O)[O-])cc12` the Potency was inconclusive: 35.5 µM [inhibitor, single point].
`COc1cccc(C2=NNC(=NCc3ccccc3)SC2)c1` was tested, and the Potency was inconclusive: 25.1 µM [inhibitor, single point].
`Cc1noc(C)c1COc1ccccc1C(=O)NCCc1ccc(Cl)cc1` was tested, and the “activity, negative = active” value was inactive: -2.64%.
For `COc1ccc(-c2cc(NC=O)c3ncc(-c4cccc(C(F)(F)F)c4)n3c2)c(OC)c1`, the Potency was inconclusive: 12.6 µM [inhibitor, partial curve].
For `CCOC(=O)CC1C(=O)NCCN1c1nc2c(C)cccn2c(=O)c1/C=C1\SC(=S)N(C(C)CC)C1=O` (stereo unspecified), the Potency was inconclusive: 3.16 µM [inhibitor, partial curve, poor fit].
For `CCSc1c([N+](=O)[O-])c(=O)n(-c2ccccc2)c2ccccc12`, the Potency was inconclusive: 31.6 µM [inhibitor, single point].
For `Nc1c(C(=O)c2ccccc2)sc2snc(SCC(=O)c3ccccc3)c12`, the Potency was inconclusive: 3.16 µM [inhibitor, full curve, poor fit].
For `CC1CCCC(C)N1C(=O)COC(=O)C1CCN(S(=O)(=O)c2c(Cl)cccc2Cl)CC1` (stereo unspecified), the “activity, negative = active” value was inactive: 0.889%.
For `CCN(CC)CCOc1ccc2nc(N(C)C)sc2c1`, the “activity, negative = active” value was inactive: 1.74%.
`COc1cc(Nc2c3c(nc4ccccc24)CCC3)cc(OC)c1OC` was tested, and the Potency was inconclusive: 1.78 µM [inhibitor, full curve].
In the case of `O=C(C1CC1)N1c2ccccc2Sc2ccccc21`, the Potency was inconclusive: 12.6 µM [inhibitor, partial curve, poor fit].
With `Cc1ccc(Cn2ncc(Cl)c(Cl)c2=O)cc1` the Potency was inconclusive: 35.5 µM [inhibitor, single point].
With `COC(=O)C(O)(CC(=O)Nc1ccccc1OC)C(F)(F)F` (stereo unspecified) the “activity, negative = active” value was inactive: 1.35%.
For `CC(C)c1ccc(C(=O)NCCCNC(=O)c2cnccn2)cc1`, the Potency was inconclusive: 20 µM [inhibitor, partial curve, poor fit].
With `C/C(=N\Nc1ccc([N+](=O)[O-])cc1)c1cc2ccccc2o1` the Potency was inconclusive: 14.1 µM [inhibitor, single point].
With `O=C(N/N=C/c1c[nH]c2ccccc12)c1cc(-c2ccc(-c3ccccc3)cc2)n[nH]1` the Potency was inconclusive: 25.1 µM [inhibitor, single point].
In the case of `Cn1c2ccccc2c2nnc(SC3CCOC3=O)nc21` (stereo unspecified), the “activity, negative = active” value was inactive: 0.398%.
In the case of `CC(C)NC(=O)Cn1nc(N2CCN(c3ccccc3)CC2)ccc1=O`, the “activity, negative = active” value was inactive: 0.121%.
`O=C(Nc1ccc(F)c(Cl)c1)c1csc(COCCO)n1` was tested, and the “activity, negative = active” value was inactive: -1.54%.
With `CSc1ccc(C2N=C(c3ccccc3)NO2)cc1` (stereo unspecified) the Potency was inconclusive: 35.5 µM [inhibitor, single point].
With `CCOc1ccc(NC(=O)/C(C#N)=C/c2ccc(N3CCCC3)c(C)c2)cc1` the Potency was active: 3.98 µM.
In the case of `Cc1cc(OCCCCn2ccnc2)cc(C)c1Cl`, the “activity, negative = active” value was inactive: -5.71%.
In the case of `O=c1c2ccccc2sc2nc(C3CCCCC3)n(Cc3ccco3)c(=O)c12`, the “activity, negative = active” value was inactive: 0.35%.
In the case of `CC(C)CC(=O)/C=C/n1c(=S)oc2ccccc21`, the Potency was inconclusive: 7.08 µM [inhibitor, partial curve, poor fit].
For `N#Cc1ccc(-c2cccnc2)nc1SCC(=O)c1ccccc1`, the Potency was inconclusive: 7.94 µM [inhibitor, partial curve].
`Nc1c(-c2cccc(Cl)c2)cnn1-c1cccc(C(F)(F)F)c1` was tested, and the “activity, negative = active” value was inactive: 2.11%.
In the case of `COc1ccc2nc3cc(Cl)ccc3c(C#N)c2c1`, the “activity, negative = active” value was inactive: -17.2%.
For `O=[N+]([O-])c1ccc(-c2nc(Cl)c3c(n2)CCCC3)o1`, the “activity, negative = active” value was inactive: -14.4%.
In the case of `CC(C)Cn1cc(C(=O)N2CCN(c3cccc(Cl)c3)CC2)c2c3ccccc3n(C)c2c1=O`, the “activity, negative = active” value was inactive: 1.25%.
In the case of `COc1ccccc1CCC(=O)O`, the “activity, negative = active” value was inactive: 2.61%.
In the case of `CCCCCCCCOC(=O)C[N+](C)(C)C/C=C(/C)Cl`, the “activity, negative = active” value was inactive: 0.629%.
For `COc1ccc(-c2csc3nc(-c4ccccc4F)oc(=O)c23)cc1OC`, the Potency was inconclusive: 35.5 µM [inhibitor, single point].
In the case of `Cn1c2ccccc2c2cc(C(=O)OCC(=O)N3CC(=O)Nc4ccccc43)sc21`, the Potency was inconclusive: 22.4 µM [inhibitor, single point].
With `O=[N+]([O-])c1ccc(N/N=C/c2c[nH]c3ccccc23)cc1` the Potency was active: 7.94 µM.
In the case of `O=C(Nc1cccnc1)C1CCCN(S(=O)(=O)c2ccccc2)C1` (stereo unspecified), the “activity, negative = active” value was inactive: -2.25%.
`COc1ccc(C(=O)N2CCC(c3ccncc3)CC2)cc1OC` was tested, and the “activity, negative = active” value was inactive: 2.22%.
In the case of `COc1cc2c(cc1OC)CN(C(=S)Nc1ccccc1)CC2`, the “activity, negative = active” value was inactive: -0.463%.
For `Cc1ccc(N=Cc2sc(O)c3ccccc23)cc1`, the Potency was inconclusive: 35.5 µM [inhibitor, single point].
For `COc1ccc(C(=O)/C=C/C(=O)N(CC(=O)NC2CCCCC2)Cc2ccccc2OC)c(O)c1`, the “activity, negative = active” value was inactive: -14.5%.
`S=C(Nc1ccc(Oc2ccc(NC(=S)NC3CCCCC3)cc2)cc1)NC1CCCCC1` was tested, and the “activity, negative = active” value was inactive: 2.34%.
In the case of `CCCn1c(=O)c(C(=O)NCc2ccccc2Cl)c(O)c2ccccc21`, the “activity, negative = active” value was inactive: 1.67%.
In the case of `CCN(CC)S(=O)(=O)c1cc(NC(=O)Cn2ncc(Cl)c(Cl)c2=O)ccc1C`, the Potency was inconclusive: 22.4 µM [inhibitor, single point].
For `N#CCc1ccnc2ccccc12`, the Potency was inconclusive: 35.5 µM [inhibitor, single point].
For `CC(Nc1nc(-c2ccc3c(c2)NC(=O)CO3)cs1)c1ccccc1` (stereo unspecified), the “activity, negative = active” value was inactive: -12.5%.
`COc1cc(C(C[N+](=O)[O-])c2c(N)n(C)c(=O)n(C)c2=O)ccc1O` (stereo unspecified) was tested, and the Potency was inconclusive: 17.8 µM [inhibitor, single point].
`O=C(Nc1ccc(Cl)c(S(=O)(=O)N2CCOCC2)c1)c1ccc(OCC2CCCO2)cc1` (stereo unspecified) was tested, and the Potency was inconclusive: 22.4 µM [inhibitor, single point].
In the case of `CC(C)c1nn2c(=O)cc(COC(=O)c3ccccc3NC(=O)c3cccs3)nc2s1`, the “activity, negative = active” value was inactive: 3.78%.
For `O=c1oc2ccccc2n1CCn1c2ccccc2c2nc3ccccc3nc21`, the “activity, negative = active” value was inactive: -0.423%.
In the case of `O=C(Cc1ccccc1F)Nc1ccc(SC(F)F)cc1`, the “activity, negative = active” value was inactive: -4.48%.
For `Cc1nc2nc(SCC(=O)NCc3ccccc3)nn2c(C)c1Cc1ccccc1Cl`, the Potency was inconclusive: 35.5 µM [inhibitor, partial curve, poor fit].
With `Cc1ccc2c(c1)Sc1c(ccc3ccccc13)N2` the Potency was inconclusive: 15.8 µM [inhibitor, partial curve, poor fit].
In the case of `Cc1ccc(C(=O)Sc2cccccc2=O)cc1`, the Potency was inconclusive: 22.4 µM [inhibitor, single point].
In the case of `COc1ccc(/C=C(\C#N)C(=O)NCC2CCCO2)cc1OC` (stereo unspecified), the “activity, negative = active” value was inactive: 1.01%.
`Oc1cccc2ccc(Nc3ccccn3)nc12` was tested, and the Potency was inconclusive: 22.4 µM [inhibitor, single point].
In the case of `CCOC(=O)c1c(-c2ccccc2)csc1/N=C/C1C(=O)CCCC1=O`, the “activity, negative = active” value was inactive: -17%.
With `O=C1CCCC2=C1C(c1ccco1)Nc1ccc(C(=O)c3ccccc3)cc1N2` (stereo unspecified) the Potency was inconclusive: 6.31 µM [inhibitor, partial curve, poor fit].
With `c1ccc(C2=NN(c3ccccc3)C(c3ccco3)C2)cc1` (stereo unspecified) the “activity, negative = active” value was inactive: -0.356%.
With `COc1cc(/C=C2\SC(=S)N(CCC(=O)Nc3ccccc3)C2=O)cc(OC)c1OC` the Potency was inconclusive: 35.5 µM [inhibitor, single point].
With `O=C(NC(=S)NC1CCCC1)c1ccccc1` the “activity, negative = active” value was inactive: -2.65%.
In the case of `O=C(NCC(c1cccs1)N1CCOCC1)c1cc2ccccc2oc1=O` (stereo unspecified), the Potency was inconclusive: 35.5 µM [inhibitor, single point].
For `Cc1nc(NC(C)c2ccccc2)sc1C(=O)Nc1ccccc1` (stereo unspecified), the Potency was inconclusive: 35.5 µM [inhibitor, partial curve, poor fit].
